Test results from PubChem BioAssay AID624417 (National Center for Advancing Translational Sciences (NCATS), 2012).
Hit rate of the full screen: of about 410,000 compounds, about 6,400 (1.6%) were called active. This list was built around the results that the source calls inconclusive (neither active nor inactive); the mix of calls is not that of the screen. Calls follow the shape of the dose curve; as a rule, active = well fitted inhibition curve with a large enough effect; inconclusive = small, poorly fitted or top-dose-only effect; inactive = no such curve, though single readings can be large or run the other way. No potency is given beside an inconclusive call; the fits are too rough.

Target: Glucagon-like peptide 1 receptor (Homo sapiens) (UniProt P43220)
Chain of UniProt P43220 (P43220 whole entry, looked up): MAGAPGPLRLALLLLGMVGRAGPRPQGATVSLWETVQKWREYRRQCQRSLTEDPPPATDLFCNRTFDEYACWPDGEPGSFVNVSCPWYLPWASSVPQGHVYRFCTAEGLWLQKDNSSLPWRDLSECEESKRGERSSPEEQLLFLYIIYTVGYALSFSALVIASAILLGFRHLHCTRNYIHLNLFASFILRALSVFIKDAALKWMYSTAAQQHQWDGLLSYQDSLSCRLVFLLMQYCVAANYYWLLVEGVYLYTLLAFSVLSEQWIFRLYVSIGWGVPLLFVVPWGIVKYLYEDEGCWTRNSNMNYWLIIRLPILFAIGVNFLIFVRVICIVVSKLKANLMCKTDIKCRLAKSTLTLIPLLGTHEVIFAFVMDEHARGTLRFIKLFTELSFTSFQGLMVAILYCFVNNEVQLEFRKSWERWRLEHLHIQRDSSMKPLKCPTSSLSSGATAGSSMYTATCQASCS
Experiment: qHTS of GLP-1 Receptor Inverse Agonists (Inhibition Mode); also: nearly all actives have a fitted effect of over 55% in size
Settings: HEK293 GLP-1R CRE-luciferase, luminescence, 24 h, GLP-1R form is constitutively active; activity change, negative = inhibition: at 38.3 µM (top of the series) unless noted
Summary of the method: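 Constitutively active GLP-1R drives a cAMP-responsive luciferase in stably transfected HEK293 cells; test compounds are added after overnight (12 h) attachment and left 24 hr, and signal loss in luminescence marks inhibition.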
% is scaled to controls: 0 for no effect and ±100 for the full control effect; potency is read from the fitted curve at half-maximal effect; tags tell the direction and shape of the fitted curve.

Compound | Potency | activity change, negative = inhibition
CC1CCCCN1Cc1ccc(-c2nnn(CC(=O)NC3CCCCC3)n2)cc1 (centres undefined) | inconclusive [inhibitor, partial curve, poor fit] | –
O=C(CCC(=O)N(CC(=O)NC1CCCC1)c1ccccc1F)Nc1nccs1 | inactive | –
CC(C)C(N)c1csc(Nc2ccc(C(F)(F)F)cn2)n1 (centres undefined) | inconclusive [inhibitor, single point] | –
CN(C(=O)CC1C(=O)NCCN1CC(c1ccccc1)c1ccccc1)C(C1CC1)C1CC1 (centres undefined) | inconclusive [inhibitor, partial curve, poor fit] | –
CN(CC(=O)Nc1ccc(Cl)cc1)C(=O)c1sccc1-c1ccccc1 | inconclusive [inhibitor, single point] | –
Cc1ccc(-c2onc(C)c2C)cc1S(=O)(=O)Nc1ccc(Cl)cn1 | inactive | –
CC(C)(C)C1CCC(C(=O)Nc2nccs2)CC1 (centres undefined) | inactive | –
CCCNC(=S)N1CCN(c2nc(-c3cccc(OC)c3)cs2)CC1 | inconclusive [inhibitor, single point] | –
CCN1CCN(c2cc(C)c3cc(NC(=S)N4CCN(c5ccccc5F)CC4)ccc3n2)CC1 | inconclusive [inhibitor, partial curve, poor fit] | –
COc1ccc(CNC(=O)c2cc3cccc4c3n2CC(C)S4)c(OC)c1 (centres undefined) | active: 7.94 µM | –
CC1(c2ccc(F)cc2)OC(=O)c2c1ccc1ccccc21 (centres undefined) | inconclusive [inhibitor, partial curve, poor fit] | –
Cc1cc(SCC(=O)NCC2CCCO2)nc2ccccc12 (centres undefined) | inconclusive [inhibitor, partial curve, poor fit] | –
Cc1ccc(SC2=C[C@@]3(O)CC[C@@H](O)[C@@](Sc4ccc(C)cc4)(C2=O)[C@H]3O)cc1 | inconclusive [inhibitor, single point] | –
O=C(CSc1nc2cc(Cl)ccc2c(=O)n1Cc1ccco1)Nc1ccc(S(=O)(=O)N2CCOCC2)cc1 | inactive | –
Cc1cc(C(=O)N/N=C/c2cc([N+](=O)[O-])ccc2O)c2ccccc2n1 | inconclusive [inhibitor, partial curve] | –
Cc1cc(S(=O)(=O)N2CCCOC2CNC(=O)C(=O)NCCc2ccco2)ccc1F (centres undefined) | inconclusive [inhibitor, single point] | –
CC(C)c1ccc(C(=O)CN2C(=O)NC3(CCc4ccccc43)C2=O)cc1 (centres undefined) | active: 2.51 µM | –
COc1ccc(C(=O)CSc2nnc(Cn3nnc4ccccc43)n2C)cc1 | inconclusive [inhibitor, partial curve] | –
CCOC(=O)c1ccccc1NC(=O)COC(=O)C(CC(C)C)NC(N)=O (centres undefined) | inactive | –
C=CCn1c2ccccc2c(=O)c2cc(C#CC3(O)CCCCC3)ccc21 | inconclusive [inhibitor, single point] | –
Cc1ccc(Cn2ncc3c(NCCCN(C)C)ncnc32)cc1 | inconclusive [inhibitor, single point] | –
COc1ccc(S(=O)(=O)N2CCN(CC(=O)Nc3ccc(Cl)c(C(F)(F)F)c3)CC2)cc1 | inconclusive [inhibitor, single point] | –

Compound | Potency | activity change, negative = inhibition
N#CCn1nnc(-c2ccc3c(c2)OCO3)n1 | inconclusive [inhibitor, single point] | –
O=C(Nc1ccc(Cl)c(-c2nc3ccccc3[nH]2)c1)c1ccc2c(c1)OCO2 | inconclusive [inhibitor, partial curve, poor fit] | –
O=C(Nc1sc2c(c1C(=O)O)CCCCC2)c1ccccc1F | inconclusive [inhibitor, partial curve] | –
CCOc1ccc(CNC(=O)c2sc3ncnc(N(C)C4CCCCC4)c3c2C)cc1 | inconclusive [inhibitor, single point] | –
CCOc1ccc(CCNC(=O)CCOc2cc(C)ccc2C)cc1OCC | inconclusive [inhibitor, single point] | –
O=C(COC(=O)c1c(F)cccc1Cl)NCC1CCCCC1 | inconclusive [inhibitor, single point] | –
Cc1ccc(N=C2NC(=O)/C(=C\c3ccsc3)S2)c(C)c1 | inconclusive [inhibitor, single point] | –
CCNc1oc(-c2ccc(COc3ccc(Cl)cc3)o2)nc1C#N | inconclusive [inhibitor, partial curve, poor fit] | –
CN=C(Nc1cc(Cl)ccc1Cl)SC1CC(=O)N(c2ccc(C(=O)OC)cc2)C1=O (centres undefined) | active: 3.98 µM | –
CCCCOc1ccc(CNC(=O)Cc2ccc(NC(=O)N3CCSc4ncccc43)cc2)cc1 | inconclusive [inhibitor, partial curve, poor fit] | –
COc1cccc(-c2nc(CS(=O)(=O)CC(=O)Nc3ccccc3Br)c(C)o2)c1 | inconclusive [inhibitor, partial curve, poor fit] | –
Cn1c(CN2CCCC2)nc2cc(NC(=O)COc3ccc(Cl)cc3)ccc21 | inactive | –
CC1CCCCC1NC(=O)c1c(O)nc2ccccn2c1=O (centres undefined) | inconclusive [inhibitor, full curve] | –
Cc1cc2ccccn2c1C(=S)NC(=O)c1ccccc1 | inconclusive [inhibitor, partial curve, poor fit] | –
CC(=O)NC(c1ccccc1)c1nc(-c2cc3ccccc3o2)cs1 (centres undefined) | inconclusive [inhibitor, single point] | –
Cc1ccc(NC(=O)NC2CC(=O)N(c3ccc4c(c3)OCCO4)C2)cc1F (centres undefined) | inconclusive [inhibitor, partial curve, poor fit] | –
CCN1CCN(c2cc3nc(C)n(Cc4ccccc4)c(=O)c3cc2NC(=O)c2ccccc2F)CC1 | inconclusive [inhibitor, single point] | –
Oc1ccccc1N=Nc1ccccc1O | inconclusive [inhibitor, full curve, poor fit] | –
Cc1cccc(N(Cc2ccccc2)C(=O)C2CCN(C(=O)c3ccccc3C)CC2)c1 | inconclusive [inhibitor, partial curve] | –
COC(=O)Nc1nc2ccc(Sc3ccccc3)cc2[nH]1 | active: 1.12 µM | –
Cc1cc(C[n+]2ncsc2N)c2ncccc2c1 | inactive | –
CCC(C)NCCCCOc1ccc(Br)cc1 (centres undefined) | inconclusive [inhibitor, partial curve, poor fit] | –

Compound | Potency | activity change, negative = inhibition
COc1ccccc1NC(=O)c1cnc(Nc2ccccc2OC)c2ccccc12 | inconclusive [inhibitor, full curve, poor fit] | –
CCn1c(CNc2ccc(Cl)cc2)nnc1SCC(=O)NCc1ccccc1 | inconclusive [inhibitor, full curve, poor fit] | –
COc1ccc(-n2c(-c3ccc(F)cc3)cnc2SCC(=O)NCc2ccco2)cc1 | inactive | –
COc1ccc(Br)cc1S(=O)(=O)NCCc1cccs1 | inconclusive [inhibitor, single point] | –
COc1ccc2c(c1)C=C(C(=O)NCc1cc(Br)ccc1OC)CO2 | inconclusive [inhibitor, single point] | –
COc1ccc(NS(=O)(=O)c2ccc(NC(C)=O)cc2)c(OC)c1 | inconclusive [inhibitor, partial curve, poor fit] | –
CCNC(=S)/N=C(/Nc1ccccc1)Nc1nc(C)cc(C)n1 | inconclusive [inhibitor, single point] | –
COc1ccccc1NC(=O)c1sc2ncn(Cc3ccccc3Cl)c(=O)c2c1C | inactive | –
Cc1cc(NC(=O)CSCC(=O)Nc2cccc(S(=O)(=O)N3CCCCCC3)c2)no1 | inconclusive [inhibitor, partial curve, poor fit] | –
CCOC(=O)CCNC(=O)N1CCCC(CNS(=O)(=O)Cc2ccccc2)C1 (centres undefined) | inactive | –
COc1cccc(N2CCN(Cc3nc4scc(-c5ccccc5)c4c(=O)[nH]3)CC2)c1 | inconclusive [inhibitor, partial curve, poor fit] | –
O=[N+]([O-])c1cccc(N/N=C/c2ccc(N3CCOCC3)cc2)c1 | inconclusive [inhibitor, full curve, poor fit] | –
COc1cccc(CNc2ncc(Br)cc2Br)c1O | inconclusive [inhibitor, single point] | –
COc1ccc(C(=O)c2coc3ccc(OC(C)=O)cc23)cc1 | – | inconclusive: -72.6% [inhibitor]
c1ccc2nc3c(nc2c1)c1ccccc1n3CCN1CCOCC1 | inactive | –
CCN(C(=O)c1cn(-c2ccc(OC)cc2)c(=O)c2ccccc12)c1cccc(Cl)c1 | inconclusive [inhibitor, single point] | –
CSCCC(NS(=O)(=O)c1cccc(C(F)(F)F)c1)C(=O)N(C)Cc1ccc2c(c1)OCCO2 (centres undefined) | inconclusive [inhibitor, partial curve, poor fit] | –
CCC1CCCCN1CCCNC(=O)CSc1nc2nc(C)c(Cc3ccc(C)cc3)c(C)n2n1 (centres undefined) | inconclusive [inhibitor, partial curve, poor fit] | –
NC(Cc1ccc(F)cc1)c1csc(Nc2ccc(C(=O)c3ccccc3)cc2)n1 (centres undefined) | inconclusive [inhibitor, partial curve, poor fit] | –
COc1ccc(CNC(=O)CN(Cc2ccccc2Cl)C(=O)c2csnn2)cc1 | inconclusive [inhibitor, single point] | –
